Test results: PubChem BioAssay AID624296 (National Center for Advancing Translational Sciences (NCATS), 2012)
The whole screen tested about 350,000 compounds, of which about 9,900 (2.8%) were called active. Inconclusive means that the source gave no clear call. Such entries were picked first, then a sample of the others. The call rests on the fitted dose curve; in most records, active means well fitted activation curve with a large enough effect; inconclusive means small, poorly fitted or top-dose-only effect; inactive means no such curve, though single readings can be large or run the other way. No potency is given beside an inconclusive call; the fits are too rough.
Potency means the concentration at half of the fitted maximal effect; tags describe the fitted curve by direction and shape.

Experiment: A quantitative high throughput screen for small molecules that induce DNA re-replication in MCF 10a normal breast cells. Further: nearly all actives have a fitted effect of over 50% in size. On activity, positive = re-replication: % of control where 0% means no effect.
Settings: MCF 10A DNA re-replication, Hoechst nuclear intensity, 48 h; activity, positive = re-replication: at 46.1 µM (top of the series)
For `CCOC(=O)/C(C#N)=C\c1ccc(O)c(OC)c1`, the Potency was inconclusive [activator, full curve, poor fit].
In the case of `CC(OC(=O)c1cc(S(=O)(=O)Nc2ccc(F)cc2)ccc1Cl)C(=O)Nc1ccc2c(c1)OCCO2` (stereo not given), the Potency is reported as inconclusive [activator, single point].
With `Cn1nc(C(=O)N2CCC(C(N)=O)CC2)c2c1-c1ccccc1SC2` the “activity, positive = re-replication” value was inactive: 0.491%.
With `COc1ccc(N2CCN(C(=O)c3cc(-c4cc(OC)ccc4OC)nc4ccccc34)CC2)cc1` the “activity, positive = re-replication” value was inactive: -0.475%.
With `N#Cc1cc([N+](=O)[O-])c(-n2nnc3ccccc32)c([N+](=O)[O-])c1` the Potency was inconclusive [activator, single point].
In the case of `O=C(Nc1ccccn1)C12CC3CC(CC(C3)C1)C2`, the “activity, positive = re-replication” value is reported as inactive: 3.33%.
With `Cn1c(=O)[nH]c(=O)c2c1nc(N1CCN(CCO)CC1)n2Cc1ccccc1Cl` the Potency was active: 0.651 µM.
With `COc1cc(NC(=O)c2c(F)c(F)c(F)c(F)c2F)c(OC)cc1Cl` the Potency was inconclusive [activator, single point].
For `COc1ccccc1NS(=O)(=O)c1cccc(NC(=O)c2cc3ccccc3oc2=O)c1`, the “activity, positive = re-replication” value was inactive: 6.28%.
In the case of `CC(C)C(OC(=O)C1=Cc2ccccc2OC1)C(=O)NCC1CCCO1` (stereo not given), the Potency is reported as active: 16.4 µM.
With `Cc1cc(NC(=O)CSc2nnc(-c3ccco3)n2N)no1` the “activity, positive = re-replication” value was inactive: 0.431%.
For `C=CCSc1nc2c(c(=N)n1CC=C)C1CCCC1S2` (stereo not given), the Potency was inconclusive [activator, single point].
For `O=C(C=Cc1ccccc1)c1c[nH]c2ccccc2c1=O`, the Potency was active: 6.51 µM.
For `CCCCCc1ccc(OCCOCCn2c[n+](C)c3ccccc32)c(CCCCC)c1`, the Potency was inconclusive [activator, single point].
In the case of `Cc1cc([N+](=O)[O-])ccc1NC(=O)CN1C2CCC1CC(NC(=O)NC13CC4CC(CC(C4)C1)C3)C2` (stereo not given), the “activity, positive = re-replication” value is reported as inactive: -2.13%.
In the case of `CCN(CC)CCCn1c(C)cc2c(c1=O)C(c1cccc(Cl)c1)C(C#N)=C(N)O2` (stereo not given), the Potency is reported as inconclusive [activator, full curve, poor fit].
With `O=C(NCc1ccco1)c1ccccc1NS(=O)(=O)c1ccc(Cl)s1` the “activity, positive = re-replication” value was inactive: 20.5%.
In the case of `COc1ccc(CN(C)C(=O)c2ccc(OCC(=O)Nc3cccc(C(F)(F)F)c3)c(OC)c2)c(OC)c1`, the Potency is reported as inconclusive [activator, partial curve, poor fit].
With `Cc1cc(Nc2ccc(Cl)cc2)nc(-c2ccccc2O)n1` the Potency was inconclusive [activator, single point].
In the case of `CCC(Oc1ccc(Br)cc1)C(=O)N1CCN(c2ncccn2)CC1` (stereo not given), the “activity, positive = re-replication” value is reported as inactive: 8.16%.
For `CN(C(=O)CN1C(=O)/C(=C/c2ccccc2Cl)SC1=S)C1CCS(=O)(=O)C1` (stereo not given), the Potency was inconclusive [activator, partial curve, poor fit].
With `COc1ccc(C2=C/C(=C\c3cccc(OC(C)=O)c3)C(=O)O2)cc1` the “activity, positive = re-replication” value was inactive: 2.68%.
For `Cc1ccccc1/C=C/c1cc[n+](C)cc1`, the activity, positive = re-replication was inactive: -28.8% [at 9.22 µM].
With `CCCCc1ccc(NC(=O)c2ccc(N(C)S(C)(=O)=O)cc2)cc1` the Potency was inconclusive [activator, partial curve, poor fit].
In the case of `N#Cc1c(-c2cccc(F)c2)cc(-c2ccccc2)nc1Br`, the “activity, positive = re-replication” value is reported as inactive: 16.1%.
In the case of `CCNC(=O)N1CCCC(C(=O)c2ccc(OC)c(OC)c2)C1` (stereo not given), the Potency is reported as inconclusive [activator, single point].
In the case of `CC1=Nn2c(nnc2-c2ccccc2)SC1`, the “activity, positive = re-replication” value is reported as inactive: -3.17%.
With `COc1ccc(/C=C/c2cc(-c3ccc(C)cc3)o[n+]2C)cc1` the Potency was inconclusive [activator, partial curve, poor fit].
With `CCOC(=O)c1ccc(-n2c(C)nc3c(cnn3-c3ccc(Cl)cc3)c2=O)cc1` the “activity, positive = re-replication” value was inactive: 14%.
With `O=C(Nc1nn[nH]n1)c1ccc(S(=O)(=O)N2CCCCC2)cc1` the “activity, positive = re-replication” value was inactive: 17.8%.
For `O=c1c2c3c(sc2n(CCN2CCCCC2)c(=O)n1Cc1ccco1)CCCCC3`, the Potency was active: 12.6 µM.
For `Cc1n[nH]c(C)c1S(=O)(=O)N1CCCC(C(=O)NC2CCCCC2)C1` (stereo not given), the “activity, positive = re-replication” value was inactive: -6.33%.
In the case of `Clc1ccc(-c2cc3ccccc3nc2N2CCCC2)cc1`, the Potency is reported as inconclusive [activator, single point].
With `S=C1SCN(Cc2ccccc2)CN1Cc1ccccc1` the Potency was active: 33.5 µM.
In the case of `COCCN(C(=O)c1csnn1)C(C(=O)NC1CCCC1)c1ccccc1` (stereo not given), the “activity, positive = re-replication” value is reported as inactive: -15.5%.
For `N#Cc1nc(-c2cccc3ccccc23)oc1NCCN1CCOCC1`, the Potency was active: 16.4 µM.
For `COc1ccc(Br)cc1CNC(=O)CCN1C(=O)COc2ccccc21`, the “activity, positive = re-replication” value was inactive: 3.25%.
With `O=C(N1CCCCCC1)n1c(Cc2ccccc2)nc2ccccc21` the Potency was inconclusive [activator, full curve].
In the case of `CN(C)CCNC(=O)Cn1c(=O)c2cccn2c2ccc(F)cc21`, the Potency is reported as inconclusive [activator, single point].
For `CCc1c(C)nc2ncnn2c1Nc1ccc(C)cc1`, the “activity, positive = re-replication” value was inactive: 10.5%.
With `Cc1cccc(C)c1OCCNC(=O)OCc1ccccc1` the “activity, positive = re-replication” value was inactive: 8.91%.
For `O=C(CNC(=O)c1cc2c(n(-c3ccccc3)c1=O)CCCC2=O)c1ccccc1`, the Potency was inconclusive [activator, single point].
With `Cc1ccc(N2N=C(c3ccc(F)cc3)CC2c2ccco2)cc1` (stereo not given) the Potency was active: 5.8 µM.
For `CC(C)C(=O)Nc1cccc(S(=O)(=O)c2cccc(NC(=O)C(C)C)c2)c1`, the Potency was inconclusive [activator, full curve, poor fit].
With `N#Cc1c(NC(=O)CSc2ncnc3c2cnn3-c2ccccc2Cl)sc2c1CCCC2` the Potency was inconclusive [activator, partial curve, poor fit].
With `O=C(NNC(=O)C1C2C=CC(C2)C1C(=O)O)c1ccccc1` (stereo not given) the activity, positive = re-replication was inconclusive: -37.8% [activator].
With `CCCC1OC(c2cc3c(cc2Cl)OCO3)OCC1CC` (stereo not given) the “activity, positive = re-replication” value was inactive: 2.12%.
With `CC(C)(C)c1ccc(-n2ncc3c2CCCC3NC(=O)CN2CCCC2=O)cc1` (stereo not given) the “activity, positive = re-replication” value was inactive: 8.12%.
With `CCN(C(=O)Cn1nc(C)c([N+](=O)[O-])c1C)C1CCS(=O)(=O)C1` (stereo not given) the “activity, positive = re-replication” value was inactive: -18%.
In the case of `CCOC(=O)c1cc(C#N)c(N2CCCCC2)nc1-c1ccccc1`, the Potency is reported as active: 13 µM.
With `O=C(CSc1nc2nc(-c3cccs3)cc(C(F)(F)F)c2c(=O)[nH]1)NCc1ccco1` the Potency was inconclusive [activator, single point].
In the case of `N=c1c(C(=O)NCc2ccco2)cc2c(=O)n3ccccc3nc2n1Cc1ccc(Cl)cc1`, the Potency is reported as active: 2.31 µM.
With `O=C(CCN1C(=O)C2C3C=CC(C4CC34)C2C1=O)Oc1cccc2cccnc12` (stereo not given) the Potency was inconclusive [activator, partial curve, poor fit].
For `O=C(Nc1ccc(S(=O)(=O)N2CCCC2)cc1)c1cccnc1`, the Potency was inconclusive [activator, full curve, poor fit].
For `CC(C)C(=O)COc1c2occc2cc2ccc(=O)oc12`, the “activity, positive = re-replication” value was inactive: -2.07%.
With `CC(C)(C)C1(C)OC(C(=O)NC2CCCCC2)C(C(=O)NC2CCCCC2)O1` (stereo not given) the Potency was inconclusive [activator, full curve, poor fit].
In the case of `COc1cc(C(=O)OCCN2CCCCC2)ccc1O`, the “activity, positive = re-replication” value is reported as inactive: 6.09%.
For `O=S(=O)(c1ccc(F)cc1)N1CC2CCCN2c2ccc(C(F)(F)F)cc21` (stereo not given), the Potency was inconclusive [activator, partial curve, poor fit].
For `O=C(Nc1nnc(-c2ccccc2)o1)c1ccc(Cl)cc1`, the Potency was inconclusive [activator, single point].
With `CCCOCCOC(=O)c1[nH]c2c(c1C)C(=O)CC(c1cc(OC)ccc1OC)C2` (stereo not given) the Potency was inconclusive [activator, partial curve, poor fit].
In the case of `Cc1cc(C)cc(OCc2nnc(SCC(=O)N3CCN(c4ccccc4)CC3)o2)c1`, the Potency is reported as inconclusive [activator, partial curve, poor fit].
In the case of `O=c1c2ccccc2oc2cc(-c3ccc4cc[nH]c4c3)ccc12`, the Potency is reported as inconclusive [activator, partial curve, poor fit].
In the case of `N#C/C(C(N)=O)=c1/ccc2c(c1)N1C3=C(CCCC3)CC3CCCCC31N=2` (stereo not given), the “activity, positive = re-replication” value is reported as inactive: -3.63%.
With `Cc1cc(C)c(C(N)=O)c(Nc2ccc3c(c2)OCCO3)n1` the “activity, positive = re-replication” value was inactive: 5.84%.
With `Cc1nn(-c2ccccc2)c2c1C(c1cccnc1)N1C=C(S(=O)(=O)N3CCCCC3)C=CC1=N2` (stereo not given) the “activity, positive = re-replication” value was inactive: 0.741%.
In the case of `CCN(CC(=O)Nc1cccc(F)c1)Cc1nc2ccccc2c(=O)[nH]1`, the “activity, positive = re-replication” value is reported as inactive: 6.67%.
In the case of `C[C@]1(C(=O)NCc2cc(F)cc(C(F)(F)F)c2)C=C[C@@H](Cc2ccccc2)N1C(=O)c1ccccc1`, the Potency is reported as inconclusive [activator, partial curve, poor fit].
In the case of `COC(=O)c1ccc(NC(=S)NC2CCc3ccccc32)cc1` (stereo not given), the Potency is reported as inconclusive [activator, full curve, poor fit].
In the case of `O=C(COC(=O)c1cccnc1Cl)NC(=O)NC1CCCCC1`, the “activity, positive = re-replication” value is reported as inactive: -3.4%.
For `CCC(CC)c1nnc(NC(=O)c2cccc(S(=O)(=O)N3CCOCC3)c2)s1`, the Potency was inconclusive [activator, full curve, poor fit].
With `Cc1ccc(C(=O)Oc2ccc(/C=C3\C(=N)N4N=C(N5CCOCC5)SC4=NC3=O)cc2)cc1` the “activity, positive = re-replication” value was inactive: -1.29%.
With `C/C(=N\Nc1ccc(Cl)nn1)c1ccccc1O` the “activity, positive = re-replication” value was inactive: -5.86%.
For `OCC1(Cc2cccc(Cl)c2)CCCN(Cc2cnn(-c3ccccc3)c2)C1` (stereo not given), the Potency was inconclusive [activator, partial curve].
For `COc1cccc(CNC(=O)N[C@@H](C)C(=O)O)c1`, the “activity, positive = re-replication” value was inactive: -4.05%.
For `CCN(CC)CCNC(=O)c1ccc2c(c1)NC(=O)c1ccccc1S2`, the Potency was inconclusive [activator, single point].
